# Source: the supplement of paper PMC4967469
# By IC50 is meant the dose at which the fit gives 50% viability; fits outside the tested doses are given as limits. AUC sums up the same curve from the lowest dose to the 256-fold higher top dose; the more sensitive the line, the further below 1. For some of these results: An inferred top dose was calculated from the reported fits. For some of these results: An entry number marks a drug with two screens in the source, which often give different values.
# Assays:
# Assay in all cases: Viability of human cancer cell lines after 72 h of drug (GDSC screen)
# TW-37 = compound: CC(C)c1ccccc1Cc1cc(C(=O)Nc2ccc(S(=O)(=O)c3ccccc3C(C)(C)C)cc2)c(O)c(O)c1O [TW-37]; settings: top dose 5 µM
# Description: (§1)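 Human cancer cell lines in 384-well plates, medium with 10% serum, drug for 72 h over a 256-fold dose range (nine 2-fold or five 4-fold steps up to the top dose). Adherent lines were fixed and stained with the nucleic acid dye Syto60, suspension lines read with resazurin; signal relative to control wells, capped at 0 and 100%. One two-parameter sigmoid per drug and line, fitted in a mixed model over all curves with the slope shared within a line.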
# MP470 = compound: S=C(NCc1ccc2c(c1)OCO2)N1CCN(c2ncnc3c2oc2ccccc23)CC1 [MP470]; settings: top dose 20 µM; top dose inferred
# Description: as §1
# Nilotinib = compound: Cc1cn(-c2cc(NC(=O)c3ccc(C)c(Nc4nccc(-c5cccnc5)n4)c3)cc(C(F)(F)F)c2)cn1 [Nilotinib]; settings: top dose 2 µM
# Description: as §1
# KIN001-270 = compound: Cc1ccc(Nc2cc(-c3cccc(N4C(=O)c5ccccc5C4=O)c3)ncn2)cc1NS(C)(=O)=O [KIN001-270]; settings: top dose 20 µM; top dose inferred
# Description: as §1
# Gemcitabine = compound: Nc1ccn([C@@H]2O[C@H](CO)[C@@H](O)C2(F)F)c(=O)n1 [Gemcitabine]; settings: top dose 1.024 µM
# Description: as §1
# Bicalutamide = compound: CC(O)(CS(=O)(=O)c1ccc(F)cc1)C(=O)Nc1ccc(C#N)c(C(F)(F)F)c1 [Bicalutamide]; settings: top dose inferred
# Description: as §1
# LFM-A13 = compound: C/C(O)=C(\C#N)C(=O)Nc1cc(Br)ccc1Br [LFM-A13]; settings: top dose 16 µM; top dose inferred
# Description: as §1
# AUY922 = compound: CCNC(=O)c1noc(-c2cc(C(C)C)c(O)cc2O)c1-c1ccc(CN2CCOCC2)cc1 [AUY922]; settings: top dose 0.256 µM; top dose inferred
# Description: as §1
# T0901317 = compound: O=S(=O)(c1ccccc1)N(CC(F)(F)F)c1ccc(C(O)(C(F)(F)F)C(F)(F)F)cc1 [T0901317]; settings: top dose 10.24 µM; top dose inferred
# Description: as §1
# [1] = top dose 1.024 µM, screen: GDSC drug entry 150
# [2] = top dose 10 µM, screen: GDSC drug entry 1502
Cell Line,AUC (TW-37),IC50 (TW-37) [nM],AUC (MP470),IC50 (MP470) [nM],AUC (Nilotinib),IC50 (Nilotinib) [nM],AUC (KIN001-270),IC50 (KIN001-270) [nM],AUC (Gemcitabine),IC50 (Gemcitabine) [nM],AUC (Bicalutamide; [1]),IC50 (Bicalutamide; [1]) [nM],AUC (Bicalutamide; [2]),IC50 (Bicalutamide; [2]) [nM],AUC (LFM-A13),IC50 (LFM-A13) [nM],AUC (AUY922),IC50 (AUY922) [nM],AUC (T0901317),IC50 (T0901317) [nM]
"H2731 (mesothelioma, adherent)",0.594,588,0.893,> 20000,0.984,> 2000,0.984,> 20000,0.978,> 1020,0.984,> 1020,0.982,> 10000,0.96,> 16000,0.928,> 256,0.932,> 10200
"H2795 (mesothelioma, adherent)",0.457,239,0.987,> 20000,0.963,> 2000,0.953,> 20000,0.93,> 1020,0.987,> 1020,,,0.9,> 16000,0.804,126,0.987,> 10200
"H2869 (mesothelioma, adherent)",0.689,1210,0.935,> 20000,0.98,> 2000,0.984,> 20000,0.766,465,0.983,> 1020,0.982,> 10000,0.963,> 16000,0.645,44.6,0.984,> 10200
"HARA (lung squamous cell carcinoma, adherent)",0.614,679,0.967,> 20000,0.934,> 2000,0.98,> 20000,0.631,156,0.98,> 1020,0.981,> 10000,0.954,> 16000,0.664,49.6,0.977,> 10200
"HCC1143 (breast, adherent)",0.687,1300,0.963,> 20000,0.98,> 2000,0.95,> 20000,0.935,> 1020,0.978,> 1020,0.958,> 10000,0.931,> 16000,0.918,> 256,0.98,> 10200
"HCC1395 (breast, adherent)",0.809,3290,0.975,> 20000,0.973,> 2000,0.963,> 20000,0.977,> 1020,0.98,> 1020,0.977,> 10000,0.981,> 16000,0.935,> 256,0.978,> 10200
